# Out of some 120,000 compounds screened, about 5,300 (4.4%) were called active. This list was built around the results that the source calls inconclusive (neither active nor inactive); the mix of calls is not that of the screen. Calls come from the whole dose curve; as a rule, active = well fitted inhibition curve with a large enough effect; inconclusive = small, poorly fitted or top-dose-only effect; inactive = no such curve, though single readings can be large or run the other way. Potencies beside an inconclusive call are fits to weak or partial responses and may not hold up.
# Experiment: qHTS Primary assay for Inhibitors of Plasmodium falciparum Dd2 growth in vitro; note: nearly all actives have a fitted effect of over 65% in size;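 for activity, negative = inhibition: plate controls were DMSO vehicle for no effect and reference drug for full effect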
# Details: P. falciparum Dd2 growth, SYBR Green, 72 h; activity, negative = inhibition: at 28.9 µM (top of the series) unless noted; series mostly up to 28.9 µM
# Summary of the method: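 Readout: SYBR Green fluorescence, 485 nm excitation, 535 nm emission, after ~16 h lysis at 37C. Before that, Dd2-infected red cells (2.5% hematocrit) grew 72 h with compound, 29 uM top final concentration.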
# Potency is the fitted concentration of half-maximal effect; tags give direction and shape of the fitted curve.
SMILES,Potency,"activity, negative = inhibition",outcome
O=C(Nc1cccc(-c2nnc3n2CCCC3)c1)c1ccccc1,"inconclusive: 5.01 µM [inhibitor, partial curve]",,
Cc1cc(Cl)cc(Cl)c1CNCC1(O)CCCNC1 (configuration not stated),active: 7.94 µM,,
O=C(c1nnc(CNCCN2CCCC2)n1-c1ccccc1)N1CCC[C@@H]1C(c1ccccc1)c1ccccc1,,inactive: -32.2%,
O=c1[nH]c(N2CCOCC2)nc2c1CCN(Cc1cccc(C(F)(F)F)c1)CC2,"inconclusive: 1 µM [inhibitor, partial curve]",,
O=C(NC[C@@H]1CCCN1)C1CCN(c2nc(-c3ccccc3)nc3c2CCC3)CC1,"inconclusive: 10 µM [inhibitor, single point]",,
COC1CCC(C(=O)N2CCCn3nc(C)c(-c4ccccc4C(C)C)c32)CC1 (configuration not stated),"inconclusive: 25.1 µM [inhibitor, single point]",,
C[C@@H](NC(=O)N1CCOC[C@H]1c1ncc(-c2ccc(OC(F)(F)F)cc2)[nH]1)c1ccccc1,"inconclusive: 8.91 µM [inhibitor, single point]",,
Cc1ccc(C(=O)NC[C@H]2O[C@@H](CC(=O)NC3CC3)[C@H](O)[C@@H]2O)cc1,,inactive: 3.2% [at 44.1 µM],
CCOc1cccc(CN2C[C@@H](Oc3ccccc3)C[C@@H]2C(=O)NC)c1,"inconclusive: 17.8 µM [inhibitor, single point]",,
COc1ccccc1CN[C@H]1CC(C)(C)[C@@H]2C[C@@](C)(O)CC[C@]12CCC(=O)NCCN1CCOCC1,,inactive: -17.2%,
Cc1ccc(Cl)cc1N1CCN(C(=O)c2ccc3c(c2)N(Cc2ccccc2F)C(=O)c2ccccc2S3(=O)=O)CC1,"inconclusive: 1 µM [inhibitor, full curve, poor fit]",,
O[C@H]1CC[C@@H](Cc2cc(-c3ccc(F)cc3)on2)O[C@@H]1CNC1CCOCC1,"inconclusive: 1.12 µM [inhibitor, partial curve, poor fit]",,
CCCN(CC1CCOC1)C(=O)c1ccccc1C(F)(F)F (configuration not stated),"inconclusive: 0.562 µM [inhibitor, partial curve, poor fit]",,
CC(=O)c1c(C)nn(CCC(=O)N[C@@H]2CCNC[C@H]2O)c1C,"inconclusive: 3.16 µM [inhibitor, single point]",,
CC(C)CC(C)NC(=O)c1ccc(Cn2ccn3nc4c(c3c2=O)CCCC4)cc1 (configuration not stated),"inconclusive: 11.2 µM [inhibitor, partial curve, poor fit]",,
Cc1ccc2c(c1)CCCN2C(=O)CN1CCn2nc(CO)cc2C1,,inactive: -23.8%,
CN1CCN(CCc2noc(C3CCCCCN3C)n2)CC1 (configuration not stated),,inactive: 4.67%,
COc1ccc(Nc2cc(C)c3cc(NC(=O)c4cc(OC)cc(OC)c4)ccc3n2)cc1,"inconclusive: 0.447 µM [inhibitor, full curve, poor fit]",,
Cc1cn2nc(C(=O)N3CCN(C(=O)c4ccc(C)s4)CC3)cc2c(=O)[nH]1,"inconclusive: 4.47 µM [inhibitor, partial curve, poor fit]",,
CN(C)C[C@@H]1CN(Cc2ccncc2)C[C@H]1N,,inactive: 7.86%,
CN1C[C@H]2CN(C(=O)c3ccc(C(F)(F)F)cc3)CCN2C1=O,"inconclusive: 5.62 µM [inhibitor, single point]",,

SMILES,Potency,"activity, negative = inhibition",outcome
CC(C)C(NS(=O)(=O)c1cccc2cccnc12)C(=O)Nc1ccc(OC(F)(F)F)cc1 (configuration not stated),active: 10 µM,,
O=C(c1ccccc1)c1ccc2nc(Nc3cc(Cl)ccc3O)c3nncn3c2c1,"inconclusive: 10 µM [inhibitor, single point]",,
CNC(=O)N1C[C@@H](CN(C)C)[C@H](NS(=O)(=O)c2ccc(F)cc2F)C1,,inactive: 18%,
O=C(c1ccc(Cl)cc1)N1CC2(CCCN(CC3CC3)C2)Cc2ccccc21 (configuration not stated),"inconclusive: 7.08 µM [inhibitor, partial curve]",,
O=C(Nc1cccc2ccccc12)O[C@@H]1CO[C@H]2[C@@H]1OC[C@@H]2NC(=O)C1CCC1,,inactive: 16.5% [at 44.1 µM],
COC(=O)c1ccc(CN2CCC(n3nccc3NC(=O)Cc3ccccc3)CC2)cc1,,,inactive
Cc1ccc(C)c(NC(=O)Cn2c(=O)n(-c3ccc(F)cc3)c(=O)c3c2cc(C)n3C)c1,,inactive: -14.2%,
CC(O)c1cc2n(n1)CCCN(C(=O)c1ccc(-c3nnn(C)n3)cc1)C2 (configuration not stated),,inactive: -6.11%,
CCN1CCC(N(Cc2ccc(F)cc2)C(=O)Nc2cc(Cl)ccc2C(=O)OC)CC1,"inconclusive: 10 µM [inhibitor, single point]",,
c1ccc(COc2ccccc2Cc2nc(-c3cccnn3)no2)cc1,"inconclusive: 11.2 µM [inhibitor, partial curve]",,
COc1ccc(NC(=O)c2cn3c4c(ccc(Cl)c4c2=O)OC(C)C3)cc1OC (configuration not stated),"inconclusive: 6.31 µM [inhibitor, partial curve, poor fit]",,
COc1ccc(N(Cc2cccs2)C(=O)COc2cc(C)c(Cl)c(C)c2)cc1,"inconclusive: 17.8 µM [inhibitor, single point]",,
Cc1noc(C)c1-c1cc2cc(CN(C)C)oc2c(NCCOc2ccccc2)n1,"inconclusive: 1.26 µM [inhibitor, partial curve]",,
COc1ccc(CNC(=O)[C@H]2O[C@H](CCN3CCCC3)CC[C@@H]2O)cc1,,inactive: -7.24% [at 44.1 µM],
COc1ccc2c(CNCCc3ccccc3)c(C(=O)O)n(Cc3cccc(F)c3)c2c1,"inconclusive: 11.2 µM [inhibitor, single point]",,
COc1ccc(Nc2cc(C(=O)NCc3ccccc3)c3ccccc3n2)c(OC)c1,,inactive: -13.2%,
CCOc1ccc(-c2cn3c(n2)sc2cc(C(=O)NC4CCCc5ccccc54)ccc23)cc1 (configuration not stated),,inactive: -20.4%,
CC(C)CN1C(=O)c2cccn2CC1C(=O)NCc1ccc(Cl)cc1 (configuration not stated),,inactive: 32.2%,
Cc1nc(N2CCOCC2)c2c(C(=O)N3CCN(c4cccc(C)c4C)CC3)c(C)oc2n1,"inconclusive: 10 µM [inhibitor, single point]",,
COc1cc(C(=O)N2CC(=O)Nc3ccc(C)cc3C2c2ccc(F)cc2)cc(OC)c1OC (configuration not stated),"inconclusive: 11.2 µM [inhibitor, single point]",,
O=C(CCC1CCN(c2cc(NC3CC3)ncn2)CC1)NCc1ccccc1Cl,"inconclusive: 2.82 µM [inhibitor, full curve, poor fit]",,

# — PubChem BioAssay AID1347417 (National Center for Advancing Translational Sciences (NCATS), 2020)
